{"source": "the supplement of paper PMC10126150", "note": "Values marked as one replicate rest on one cluster of the flow cell; about a third of the high ones do not repeat.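 Further: ATP exposure 15 min at 22 °C before imaging.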"}
{"test_system": "ATP", "assay": "switch fluorescence ratio, 500 uM ATP over buffer (Cy3 cluster intensity, sum of 5 cycles each) (fold (ratio)); higher = stronger signal-on switching upon ATP binding; sequences stand for … in TCGTCGGCAGCGTCAGATGTGTATAAGAGACAGTTTTTTTTTTTTTTTTTTTTTTTTT…TC", "conditions": "aptamer strand: ATP DNA aptamer (quencher-CACCTGGGGGAGTATTGCGGAGGAAGG + anchor), 100 nM annealed; ATP concentration: 500 uM; one replicate", "procedure,_shortened": "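After annealing to 100 nM quencher-labelled ATP aptamer, Cy3-labelled switching-strand clusters on a modified Illumina MiSeq flow-cell were imaged in selection buffer. A second image followed after 15 min with 500 uM ATP at 22 °C, and five such buffer/ATP cycles were done, each separated by NaOH stripping and re-annealing. The fluorescence ratio, averaged per switch-domain sequence, is summed target-cycle over summed buffer-cycle Cy3 intensity per cluster, with clusters outside 100-1000 RFU excluded.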"}
{"sequence": "TGGGGGGCT", "switch fluorescence ratio": 1.05}
{"sequence": "TGGGGGTTA", "switch fluorescence ratio": 0.995}
{"sequence": "TGGGGTCTTT", "switch fluorescence ratio": 0.993}
{"sequence": "TGGGGTTAG", "switch fluorescence ratio": 0.994}
{"sequence": "TGGGTAACCT", "switch fluorescence ratio": 1.22}
{"sequence": "TGGGTAAGA", "switch fluorescence ratio": 0.95}
{"sequence": "TGGGTACCGA", "switch fluorescence ratio": 0.973}
{"sequence": "TGGGTATGAG", "switch fluorescence ratio": 0.943}
{"sequence": "TGGGTC", "switch fluorescence ratio": 0.971}
{"sequence": "TGGGTCATCA", "switch fluorescence ratio": 1.02}
{"sequence": "TGGGTCCACT", "switch fluorescence ratio": 1.01}
{"sequence": "TGGGTCGTGT", "switch fluorescence ratio": 1.04}
{"sequence": "TGGGTCTTAT", "switch fluorescence ratio": 0.975}
{"sequence": "TGGGTCTTC", "switch fluorescence ratio": 0.977}
{"sequence": "TGGGTGC", "switch fluorescence ratio": 1}
{"sequence": "TGGGTGTACA", "switch fluorescence ratio": 1.06}
{"sequence": "TGGGTGTTTC", "switch fluorescence ratio": 1.01}
{"sequence": "TGGGTTCCAT", "switch fluorescence ratio": 1.01}
{"sequence": "TGGGTTCCGG", "switch fluorescence ratio": 0.937}
{"sequence": "TGGTAACTAT", "switch fluorescence ratio": 1.49}
{"sequence": "TGGTAATCGG", "switch fluorescence ratio": 0.952}
{"sequence": "TGGTACAGAC", "switch fluorescence ratio": 1.28}
{"sequence": "TGGTACCGGT", "switch fluorescence ratio": 1}
{"sequence": "TGGTACTGCA", "switch fluorescence ratio": 1.08}
{"sequence": "TGGTAGGCT", "switch fluorescence ratio": 0.957}
{"sequence": "TGGTAGGGCT", "switch fluorescence ratio": 1.02}
{"sequence": "TGGTCAAGGT", "switch fluorescence ratio": 0.985}
{"sequence": "TGGTCACTTT", "switch fluorescence ratio": 0.996}
{"sequence": "TGGTCAGCTG", "switch fluorescence ratio": 0.935}
{"sequence": "TGGTCCAATC", "switch fluorescence ratio": 0.999}
{"sequence": "TGGTCCGAAA", "switch fluorescence ratio": 1.13}
{"sequence": "TGGTCGAGGG", "switch fluorescence ratio": 1.01}
{"sequence": "TGGTCGGTTA", "switch fluorescence ratio": 1}
{"sequence": "TGGTCGTTCG", "switch fluorescence ratio": 0.976}
{"sequence": "TGGTCTGAG", "switch fluorescence ratio": 1}
{"sequence": "TGGTGACGGC", "switch fluorescence ratio": 1.12}
{"sequence": "TGGTGATGGA", "switch fluorescence ratio": 1.01}
{"sequence": "TGGTGCCTGC", "switch fluorescence ratio": 0.955}
{"sequence": "TGGTGCTGAA", "switch fluorescence ratio": 1.01}
{"sequence": "TGGTGCTTAG", "switch fluorescence ratio": 1.09}
{"sequence": "TGGTGG", "switch fluorescence ratio": 0.989}
{"sequence": "TGGTGGCCTG", "switch fluorescence ratio": 1.01}
{"sequence": "TGGTGGGTAG", "switch fluorescence ratio": 1}
{"sequence": "TGGTGGTGAG", "switch fluorescence ratio": 0.988}
{"sequence": "TGGTGTGTGG", "switch fluorescence ratio": 0.991}
{"sequence": "TGGTTCTAAA", "switch fluorescence ratio": 0.988}
{"sequence": "TGGTTCTGAA", "switch fluorescence ratio": 1.04}
{"sequence": "TGGTTCTTGG", "switch fluorescence ratio": 0.974}
{"sequence": "TGGTTGATTT", "switch fluorescence ratio": 0.972}
{"sequence": "TGGTTGCCAT", "switch fluorescence ratio": 0.973}
{"sequence": "TGGTTGGTCT", "switch fluorescence ratio": 0.99}
{"sequence": "TGGTTGTAT", "switch fluorescence ratio": 1.01}
{"sequence": "TGGTTTAGCA", "switch fluorescence ratio": 0.986}
{"sequence": "TGGTTTGACG", "switch fluorescence ratio": 1.01}
{"sequence": "TGTAACAGGT", "switch fluorescence ratio": 1.03}
{"sequence": "TGTAATGATC", "switch fluorescence ratio": 1.09}
{"sequence": "TGTACCAGAA", "switch fluorescence ratio": 1}
{"sequence": "TGTACGATTC", "switch fluorescence ratio": 0.968}
{"sequence": "TGTACGTAGA", "switch fluorescence ratio": 1.05}
{"sequence": "TGTAGAAAAA", "switch fluorescence ratio": 0.966}
{"sequence": "TGTAGACCCA", "switch fluorescence ratio": 0.955}
{"sequence": "TGTAGCGTGG", "switch fluorescence ratio": 1.04}
{"sequence": "TGTAGGACAG", "switch fluorescence ratio": 0.958}
{"sequence": "TGTAGGTAAT", "switch fluorescence ratio": 0.991}
{"sequence": "TGTAGTCGTA", "switch fluorescence ratio": 1.09}
{"sequence": "TGTATATACC", "switch fluorescence ratio": 1.05}
{"sequence": "TGTATATATG", "switch fluorescence ratio": 0.989}
{"sequence": "TGTATATCGT", "switch fluorescence ratio": 1.12}
{"sequence": "TGTATGGGTT", "switch fluorescence ratio": 0.99}
{"sequence": "TGTATTACAG", "switch fluorescence ratio": 1.01}
{"sequence": "TGTATTCCTT", "switch fluorescence ratio": 0.999}
{"sequence": "TGTATTCGCT", "switch fluorescence ratio": 0.983}
{"sequence": "TGTATTCTGG", "switch fluorescence ratio": 0.999}
{"sequence": "TGTATTTATG", "switch fluorescence ratio": 0.996}
{"sequence": "TGTATTTCGC", "switch fluorescence ratio": 0.992}
{"sequence": "TGTCAAGTCC", "switch fluorescence ratio": 1.04}
{"sequence": "TGTCATAGCC", "switch fluorescence ratio": 0.978}
{"sequence": "TGTCATCTAG", "switch fluorescence ratio": 0.969}
{"sequence": "TGTCCAATGC", "switch fluorescence ratio": 1.68}
{"sequence": "TGTCCCCGT", "switch fluorescence ratio": 0.999}
{"sequence": "TGTCCGCCGC", "switch fluorescence ratio": 2.66}
{"sequence": "TGTCCGCTTG", "switch fluorescence ratio": 1.06}
{"sequence": "TGTCCGGGAC", "switch fluorescence ratio": 0.996}
{"sequence": "TGTCCGGTTG", "switch fluorescence ratio": 1.28}
{"sequence": "TGTCCTGAAG", "switch fluorescence ratio": 1.02}
{"sequence": "TGTCCTGTGA", "switch fluorescence ratio": 1.02}
{"sequence": "TGTCCTTTAC", "switch fluorescence ratio": 1.03}
{"sequence": "TGTCGATGAG", "switch fluorescence ratio": 0.989}
{"sequence": "TGTCGCCCCC", "switch fluorescence ratio": 1.05}
{"sequence": "TGTCGCGTTT", "switch fluorescence ratio": 1.04}
{"sequence": "TGTCGCTCCA", "switch fluorescence ratio": 1}
{"sequence": "TGTCGCTT", "switch fluorescence ratio": 1.07}
{"sequence": "TGTCGGGG", "switch fluorescence ratio": 0.998}
{"sequence": "TGTCGGGGCG", "switch fluorescence ratio": 0.973}
{"sequence": "TGTCGGTCTT", "switch fluorescence ratio": 1.26}
{"sequence": "TGTCGGTTTG", "switch fluorescence ratio": 0.979}
{"sequence": "TGTCGTCGGT", "switch fluorescence ratio": 1.01}
{"sequence": "TGTCGTGCCA", "switch fluorescence ratio": 0.995}
{"sequence": "TGTCTATTTG", "switch fluorescence ratio": 1.01}
{"sequence": "TGTCTGCCAG", "switch fluorescence ratio": 0.985}
